# Reference: PubChem BioAssay AID624202 (National Center for Advancing Translational Sciences (NCATS), 2012)
# In all, about 380,000 compounds went through this assay and about 4,000 (1.1%) were called active. Inconclusive results, whose numbers are uncertain, are shown with a selection of clear calls. The call rests on the fitted dose curve; in most records, active means well fitted activation curve with a large enough effect; inconclusive means small, poorly fitted or top-dose-only effect; inactive means no such curve, though single readings can be large or run the other way. A potency beside an inconclusive call is a rough fit, not a confirmed value.
# Experiment: qHTS Assay to Identify Small Molecule Activators of BRCA1 Expression; further: nearly all actives have a fitted effect of over 80% in size
# Conditions: MCF7-BRCA1-FFLuc reporter, luminescence, 48 h; activation: at 46.1 µM (top of the series), scaled: vehicle 0%, 10 µM genistein 100% unless noted
# Procedure, shortened: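 Activators of BRCA1 expression were detected as increased firefly luciferase luminescence in engineered MCF7 cells after 48 h compound incubation. Signals were scaled to genistein 10 microM as full activation.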
# Potency means the concentration at half of the fitted maximal effect; tags describe the fitted curve by direction and shape.
Structure (SMILES),Potency,activation
Cc1ccc(Nc2nc(-c3ccccc3)cs2)nc1,"inconclusive: 1 µM [activator, full curve, poor fit]",
N/C(=N\OC(=O)c1ccc([N+](=O)[O-])cc1)c1ccccn1,"inconclusive: 1.26 µM [activator, full curve, poor fit]",
Cc1cc(C)nc(NC(=O)/C=C/c2ccccc2Cl)c1,active: 3.16 µM,
CCCc1noc(-c2ccc(-c3ccccc3)cc2)n1,active: 8.91 µM,
CC1(C)CC(=O)c2sc(N3CCCCC3)nc2C1,"inconclusive: 17.8 µM [activator, partial curve, poor fit]",
O=C(NCc1ccco1)c1nc2ccccc2s1,"inconclusive: 35.5 µM [activator, single point]",
O=C(NCCc1ccc2c(c1)OCCO2)c1cccc(F)c1,"inconclusive: 11.2 µM [activator, partial curve, poor fit]",
CC(C)c1ccc(Nc2nc(CC(=O)O)cs2)cc1,active: 5.01 µM,
COc1ccc(-n2c(SCc3ccc([N+](=O)[O-])cc3)nnc2-c2ccc(C)cc2)cc1,inactive,
c1csc(C2=NNC(=NC3CCCCC3)SC2)c1,"inconclusive: 2.24 µM [activator, partial curve, poor fit]",
CC(C)C(NS(=O)(=O)c1c(Cl)cccc1Cl)C(=O)OCC(=O)c1c[nH]c2ccccc12 (configuration not stated),inactive,
COc1ccc(-c2csc(NC3CCCCC3)n2)c(OC)c1,"inconclusive: 22.4 µM [activator, partial curve, poor fit]",
O=C(Cc1ccccc1[N+](=O)[O-])NCc1ccc(Cl)cc1Cl,"inconclusive: 3.55 µM [activator, partial curve, poor fit]",
Cc1cc(C(=O)N/N=C2\CCCc3ccccc32)c(C)o1,"inconclusive: 20 µM [activator, partial curve, poor fit]",
Cc1cc2c(cc1C)CN(c1ccccc1)C2,"inconclusive: 12.6 µM [activator, partial curve, poor fit]",
N#Cc1ccc(OCc2nnc(SCC(=O)c3ccccc3)n2-c2ccccc2)cc1,inactive,
CC(=O)c1ccc(NC(=O)c2sc3nc4n(c(=O)c3c2C)CCCCC4)cc1,"inconclusive: 10 µM [activator, partial curve, poor fit]",
O=C(Nc1ccc2c(c1)OCO2)c1cnn2cccnc12,"inconclusive: 1.58 µM [activator, partial curve, poor fit]",
CCOc1ncccc1C(=O)Nc1ccc(Cl)cc1,inactive,
Cc1csc(=N)n1-c1ccc(Cl)cc1,"inconclusive: 15.8 µM [activator, partial curve, poor fit]",
O=C(CCc1ccccc1)NCCc1cccs1,"inconclusive: 22.4 µM [activator, single point]",
COc1ccccc1OCC(=O)Nc1ncc(C)s1,"inconclusive: 1 µM [activator, full curve, poor fit]",
Cc1cccc(C)c1NC(=O)CSc1nnc(C)n1CC1CCCO1 (configuration not stated),inactive,
O=C(Nc1ncc(Cl)cn1)c1cccs1,active: 12.6 µM,

Structure (SMILES),Potency,activation
O=C(NCCc1ccccc1)c1ccccc1C(F)(F)F,"inconclusive: 11.2 µM [activator, partial curve, poor fit]",
O=C(NC1=NCCS1)C1CCN(S(=O)(=O)c2ccc(Cl)cc2)CC1,inactive,
Cc1cccc(NC(=O)CCS(=O)(=O)c2cccc3nonc23)c1C,inactive,
O=C(Nc1ccc2ccccc2c1)c1cnccn1,"inconclusive: 3.16 µM [activator, partial curve, poor fit]",
CCOC(=O)C1(Cc2cccc(OC)c2)CCCN(C(=O)c2cc(C)[nH]n2)C1 (configuration not stated),"inconclusive: 15.8 µM [activator, single point]",
CCN(CC)c1ccc(NC(=S)NC(=O)c2cccs2)cc1,"inconclusive: 3.55 µM [activator, partial curve, poor fit]",
O=C1c2ccccc2-c2cc([N+](=O)[O-])c([N+](=O)[O-])cc21,inactive,
CC(=O)c1cccc(N/C=C\C(=O)c2ccc(C)cc2)c1,"inconclusive: 1.26 µM [activator, partial curve, poor fit]",
Nc1ccccc1SC(CC(=O)c1ccccc1)c1cccc([N+](=O)[O-])c1 (configuration not stated),inactive,
Cc1ccc(NC(=O)c2oc3ccccc3c2COC(C)C)cc1S(=O)(=O)N1CCOCC1,inactive,
CC(C)(C)CC(=O)Nc1nnc(CCc2ccccc2)s1,"inconclusive: 14.1 µM [activator, partial curve, poor fit]",
C[C@@H](CO)NC(=O)c1ccc2c3n(nc2c1)-c1ccccc1CO3,"inconclusive: 0.501 µM [activator, full curve, poor fit]",
Cc1nc(SCc2ccccc2)nc2c1CCC2,"inconclusive: 14.1 µM [activator, partial curve, poor fit]",
Nc1nc(SCc2ccccc2)ns1,active: 11.2 µM,
COc1ccc(/C=N\n2nnc3ccccc32)cc1,,inconclusive: -50.3% [activator]
Cc1ccc(NC(=O)c2ccc(C(C)(C)C)cc2)cc1[N+](=O)[O-],active: 8.91 µM,
O=C(NCc1ccccc1)c1cccc(COc2ccc3c(c2)CCC3)c1,,inconclusive: -55.1% [activator]
C/C(=N\Nc1nc2ccc(Cl)cc2o1)c1ccccc1,"inconclusive: 11.2 µM [activator, partial curve, poor fit]",
COc1cc(/C=N/NC(=O)CC2(C)OCCCO2)ccc1OCc1ccc(Cl)cc1Cl,"inconclusive: 12.6 µM [activator, partial curve, poor fit]",
COc1ccc(Nc2nc3ccc(OC)cc3s2)cc1,active: 7.94 µM,
Cc1nnc(SCC(=O)c2cc(C)n(C3CC3)c2C)s1,"inconclusive: 2.24 µM [activator, full curve, poor fit]",
CCCc1nc2ccc(C)cn2c1Cc1ccccc1,"inconclusive: 6.31 µM [activator, partial curve, poor fit]",
COC(=O)N/N=C(\C)c1cccc(C(F)(F)F)c1,inactive,
